# According to a collection of fitness landscapes (doi:10.1126/science.1257360):
# The list shows a part of the results.
# B1: PhoQ; a variant is named by its letters at X, in order, P23837 (parent)
# chain: MKKLLRLFFPLSLRVRFLLATAAVVLVLSLAYGMVALIGYSVSFDKTTFRLLRGESNLFYTLAKWENNKLHVELPENIDKQSPTMTLIYDENGQLLWAQRDVPWLMKMIQPDWLKSNGFHEIEADVNDTSLLLSGDHSIQQQLQEVREDDDDAEMTHSVAVNVYPATSRMPKLTIVVVDTIPVELKSSYMVWSWFIYVLSANLLLVIPLLWVAAWWSLRPIEALAKEVRELEEHNRELLNPATTRELTSLVRNLNRLLKSERERYDKYRTTLTDLTHSLKTPLXXLQXXLRSLRSEKMSVSDAEPVMLEQISRISQQIGYYLHRASMRGGTLLSRELHPVAPLLDNLTSALNKVYQRKGVNISLDISPEISFVGEQNDFVEVMGNVLDNACKYCLEFVEISARQTDEHLYIVVEDDGPGIPLSKREVIFDRGQRVDTLRPGQGVGLAVAREITEQYEGKIVAGESMLGGARMEVIFGRQHSAPKDE
# Variants of: B1
# Test: enrichment ratio after two sorts for PhoP signalling (ratio (wild type AVST 3.29)); higher = more functional
# Conditions: with PhoP (E. coli)
row,Variant,enrichment ratio
1,FFHN,≤ 0.25
2,SVFI,≤ 0.25
3,LARL,≤ 0.25
4,DDMP,≤ 0.25
5,YGAT,0.272
6,GERH,≤ 0.25
7,DFAQ,≤ 0.25
8,VPQL,≤ 0.25
9,FPEL,≤ 0.25
10,SDAR,≤ 0.25
11,HSDD,≤ 0.25
12,NKFT,≤ 0.25
13,HYCP,≤ 0.25
14,VCLY,≤ 0.25
15,VYSY,≤ 0.25
16,PCLP,≤ 0.25
17,TTDQ,≤ 0.25
18,FTYE,≤ 0.25
19,FQQI,≤ 0.25
20,LQTF,≤ 0.25
21,RCPF,≤ 0.25
22,HCTG,≤ 0.25
23,RLCT,≤ 0.25
24,WTPV,≤ 0.25
25,PQVQ,≤ 0.25
26,SCIY,2.52

row,Variant,enrichment ratio
1,VRPW,≤ 0.25
2,FKIF,≤ 0.25
3,FHYM,≤ 0.25
4,AEHG,≤ 0.25
5,MSEN,≤ 0.25
6,KSIL,≤ 0.25
7,RMRI,≤ 0.25
8,DDHG,≤ 0.25
9,NMGM,≤ 0.25
10,WQSA,≤ 0.25
11,PLNF,≤ 0.25
12,GQCA,0.713
13,TYYT,≤ 0.25
14,VRLT,≤ 0.25
15,SKIH,2.53
16,VYAH,≤ 0.25
17,MFLY,≤ 0.25
18,WPAD,≤ 0.25
19,YTIL,0.593
20,YTMH,≤ 0.25
21,PEGR,≤ 0.25
22,SFDM,≤ 0.25
23,WPWK,≤ 0.25
24,DWNP,≤ 0.25
25,AWTF,≤ 0.25
26,SNVL,8.74

row,Variant,enrichment ratio
1,NKHC,≤ 0.25
2,IYTL,≤ 0.25
3,QNVK,≤ 0.25
4,ASYQ,≤ 0.25
5,YGST,0.384
6,RMWA,≤ 0.25
7,GMRQ,≤ 0.25
8,PELM,≤ 0.25
9,PESW,≤ 0.25
10,GYNL,≤ 0.25
11,MYDT,≤ 0.25
12,ARTS,≤ 0.25
13,DYPD,≤ 0.25
14,FETD,≤ 0.25
15,VNSI,1.97
16,SMPG,≤ 0.25
17,PAMP,≤ 0.25
18,HKRK,≤ 0.25
19,LASW,≤ 0.25
20,DLER,≤ 0.25
21,NDMH,≤ 0.25
22,MVMF,0.704
23,FCGF,≤ 0.25
24,MCCE,≤ 0.25
25,WCFM,≤ 0.25
26,LNWF,≤ 0.25

row,Variant,enrichment ratio
1,STGG,7.99
2,AAML,14.7
3,NVMI,≤ 0.25
4,YPHI,≤ 0.25
5,LCWH,≤ 0.25
6,QDGI,≤ 0.25
7,VWMN,≤ 0.25
8,TQRM,≤ 0.25
9,GNAG,0.269
10,MVTW,≤ 0.25
11,SVTW,8.74
12,MRDS,≤ 0.25
13,NEWP,≤ 0.25
14,NVCP,≤ 0.25
15,KRFD,≤ 0.25
16,SFYP,≤ 0.25
17,DFAW,≤ 0.25
18,MPYQ,≤ 0.25
19,TKNP,≤ 0.25
20,MLDD,≤ 0.25
21,IALC,1.46
22,RNTA,≤ 0.25
23,RSEQ,≤ 0.25
24,HIVR,≤ 0.25
25,FFHI,≤ 0.25
26,LAYI,6.02

row,Variant,enrichment ratio
1,FENN,≤ 0.25
2,GLML,9.1
3,HERG,≤ 0.25
4,WTTY,≤ 0.25
5,FIVC,≤ 0.25
6,QRMF,≤ 0.25
7,QRTC,≤ 0.25
8,LHII,≤ 0.25
9,TFAD,≤ 0.25
10,DGCV,≤ 0.25
11,DWKL,≤ 0.25
12,IQTP,≤ 0.25
13,MYTV,≤ 0.25
14,SKHA,≤ 0.25
15,YESN,≤ 0.25
16,HGDV,≤ 0.25
17,MLTI,4.55
18,VYVR,≤ 0.25
19,DHCD,≤ 0.25
20,IERG,≤ 0.25
21,VDWN,≤ 0.25
22,LKRV,≤ 0.25
23,DHAN,≤ 0.25
24,HNPF,≤ 0.25
25,IADI,≤ 0.25
26,SKLG,5.04

row,Variant,enrichment ratio
1,ESES,≤ 0.25
2,MFLD,≤ 0.25
3,HAMA,≤ 0.25
4,IDGE,≤ 0.25
5,FKIW,≤ 0.25
6,MGWM,21
7,HRKP,≤ 0.25
8,YNFG,≤ 0.25
9,WTRN,≤ 0.25
10,YTGT,≤ 0.25
11,RHAW,≤ 0.25
12,YKIA,≤ 0.25
13,VTWL,≤ 0.25
14,ILCC,≤ 0.25
15,YNWS,≤ 0.25
16,IRGP,≤ 0.25
17,YFDQ,≤ 0.25
18,RLKT,≤ 0.25
19,DHYC,≤ 0.25
20,RCDS,≤ 0.25
21,RSNM,≤ 0.25
22,IAES,≤ 0.25
23,MKYQ,≤ 0.25
